This passage reports binding signal (RPM ratio (pull-down/input)) results from publication PMC12820563.

The other results are listed elsewhere or left out. The list includes weakly bound sequences.

The target of this assay is T1, MBP-FoxP3dN (UniProt Q99JB6).
T1 sequence: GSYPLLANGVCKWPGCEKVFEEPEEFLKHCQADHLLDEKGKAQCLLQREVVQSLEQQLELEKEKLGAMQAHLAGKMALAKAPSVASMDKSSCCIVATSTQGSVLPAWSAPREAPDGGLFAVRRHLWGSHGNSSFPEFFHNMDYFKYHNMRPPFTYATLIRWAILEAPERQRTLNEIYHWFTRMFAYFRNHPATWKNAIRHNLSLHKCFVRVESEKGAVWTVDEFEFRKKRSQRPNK
The assay can be described thus: PD-seq (MBP pull-down with sequencing). As to conditions: 20 mM Tris-HCl pH 7.5, 100 mM NaCl, 1.5 mM MgCl2, 0.4 uM protein, 0.1 uM dsDNA library, 30 min, room temperature, amylose pull-down; high values mean tight binding; double strand, one strand shown.
As for “GATGATTGTTCTCCCAGCTGATGAATTCGCTCCTTCGAGTAAACAAATTTTCCTAATCTTTCTGTTCAAGCGCCATCTAC”, the binding signal (RPM ratio (pull-down/input)) was 0.305.

Regarding “GATGATTGTTCTCCCAGCTGATGAATTAAGTCTGTCGAGTAAACAAATTTTCCTAATCTTTCTGTTCAAGCGCCATCTAC”, the binding signal (RPM ratio (pull-down/input)) was found to be 0.462. “GATGATTGTTCTCCCAGCTGATGAATTGGCGTCATCGAGTAAACAAATTTTCCTAATCTTTCTGTTCAAGCGCCATCTAC”: the binding signal (RPM ratio (pull-down/input)) was determined as 1.18. Turning to “GATGATTGTTCTCCCAGCTGATGAATTAACGCGCTCGAGTAAACAAATTTTCCTAATCTTTCTGTTCAAGCGCCATCTAC”, the binding signal (RPM ratio (pull-down/input)) worked out at 0.631. Turning to “GATGATTGTTCTCCCAGCTGATGAATTCCGATAGTCGAGTAAACAAATTTTCCTAATCTTTCTGTTCAAGCGCCATCTAC”, the binding signal (RPM ratio (pull-down/input)) is 0.601.

With “GATGATTGTTCTCCCAGCTGATGAATTTTGCCTATCGAGTAAACAAATTTTCCTAATCTTTCTGTTCAAGCGCCATCTAC”, the binding signal (RPM ratio (pull-down/input)) amounted to 2.85. As for “GATGATTGTTCTCCCAGCTGATGAATTCAACCCGTCGAGTAAACAAATTTTCCTAATCTTTCTGTTCAAGCGCCATCTAC”, the figure is 0.238; as for “GATGATTGTTCTCCCAGCTGATGAATTATCAACGTCGAGTAAACAAATTTTCCTAATCTTTCTGTTCAAGCGCCATCTAC”, 0.386; as for “GATGATTGTTCTCCCAGCTGATGAATTCTTAGGCTCGAGTAAACAAATTTTCCTAATCTTTCTGTTCAAGCGCCATCTAC”, 0.259. Consider “GATGATTGTTCTCCCAGCTGATGAATTGCAAATTTCGAGTAAACAAATTTTCCTAATCTTTCTGTTCAAGCGCCATCTAC”, for which the binding signal (RPM ratio (pull-down/input)) was determined as 0.804. As for “GATGATTGTTCTCCCAGCTGATGAATTTTTGTCTTCGAGTAAACAAATTTTCCTAATCTTTCTGTTCAAGCGCCATCTAC”, the figure is 0.505; as for “GATGATTGTTCTCCCAGCTGATGAATTTGGGTCTTCGAGTAAACAAATTTTCCTAATCTTTCTGTTCAAGCGCCATCTAC”, 0.715; as for “GATGATTGTTCTCCCAGCTGATGAATTTAATGTGTCGAGTAAACAAATTTTCCTAATCTTTCTGTTCAAGCGCCATCTAC”, 4.02. For “GATGATTGTTCTCCCAGCTGATGAATTATGCTGGTCGAGTAAACAAATTTTCCTAATCTTTCTGTTCAAGCGCCATCTAC”, the binding signal (RPM ratio (pull-down/input)) amounted to 1.46.

With “GATGATTGTTCTCCCAGCTGATGAATTTTATGTCTCGAGTAAACAAATTTTCCTAATCTTTCTGTTCAAGCGCCATCTAC”, the binding signal (RPM ratio (pull-down/input)) was determined as 1.12. For the sequence “GATGATTGTTCTCCCAGCTGATGAATTGGCAATGTCGAGTAAACAAATTTTCCTAATCTTTCTGTTCAAGCGCCATCTAC”, the binding signal (RPM ratio (pull-down/input)) was determined as 0.887. Consider “GATGATTGTTCTCCCAGCTGATGAATTCGGGCGCTCGAGTAAACAAATTTTCCTAATCTTTCTGTTCAAGCGCCATCTAC”, for which the binding signal (RPM ratio (pull-down/input)) turned out to be 0.333. As for “GATGATTGTTCTCCCAGCTGATGAATTGCATCCATCGAGTAAACAAATTTTCCTAATCTTTCTGTTCAAGCGCCATCTAC”, the figure is 5.42; as for “GATGATTGTTCTCCCAGCTGATGAATTCGCCATCTCGAGTAAACAAATTTTCCTAATCTTTCTGTTCAAGCGCCATCTAC”, 1.34. The value for “GATGATTGTTCTCCCAGCTGATGAATTTAGCAATTCGAGTAAACAAATTTTCCTAATCTTTCTGTTCAAGCGCCATCTAC” was 4.28; that for “GATGATTGTTCTCCCAGCTGATGAATTCCGCCTGTCGAGTAAACAAATTTTCCTAATCTTTCTGTTCAAGCGCCATCTAC” was 5.28; that for “GATGATTGTTCTCCCAGCTGATGAATTCCAGTTGTCGAGTAAACAAATTTTCCTAATCTTTCTGTTCAAGCGCCATCTAC” was 0.891. As for “GATGATTGTTCTCCCAGCTGATGAATTCCGCACGTCGAGTAAACAAATTTTCCTAATCTTTCTGTTCAAGCGCCATCTAC”, the figure is 1.91; as for “GATGATTGTTCTCCCAGCTGATGAATTAATGGGATCGAGTAAACAAATTTTCCTAATCTTTCTGTTCAAGCGCCATCTAC”, 0.333; as for “GATGATTGTTCTCCCAGCTGATGAATTCCGGAAGTCGAGTAAACAAATTTTCCTAATCTTTCTGTTCAAGCGCCATCTAC”, 0.15. “GATGATTGTTCTCCCAGCTGATGAATTACAGCCCTCGAGTAAACAAATTTTCCTAATCTTTCTGTTCAAGCGCCATCTAC”: the binding signal (RPM ratio (pull-down/input)) stood at 0.516. For “GATGATTGTTCTCCCAGCTGATGAATTGAACGCGTCGAGTAAACAAATTTTCCTAATCTTTCTGTTCAAGCGCCATCTAC”, the binding signal (RPM ratio (pull-down/input)) was 0.533.

Consider “GATGATTGTTCTCCCAGCTGATGAATTGCCGATGTCGAGTAAACAAATTTTCCTAATCTTTCTGTTCAAGCGCCATCTAC”, for which the binding signal (RPM ratio (pull-down/input)) was 0.606.

As for “GATGATTGTTCTCCCAGCTGATGAATTGGCGTAATCGAGTAAACAAATTTTCCTAATCTTTCTGTTCAAGCGCCATCTAC”, the binding signal (RPM ratio (pull-down/input)) was 0.732. For “GATGATTGTTCTCCCAGCTGATGAATTCTTTGCGTCGAGTAAACAAATTTTCCTAATCTTTCTGTTCAAGCGCCATCTAC”, the binding signal (RPM ratio (pull-down/input)) came to 0.489. Regarding “GATGATTGTTCTCCCAGCTGATGAATTGGGACTCTCGAGTAAACAAATTTTCCTAATCTTTCTGTTCAAGCGCCATCTAC”, the binding signal (RPM ratio (pull-down/input)) is 1.66.
